In all, about 33,000 sequences were measured (“E-score (-0.5 to 0.5)”: median about -0.021, highest 2% from about 0.32 on). This is one part of the list.
What follows are sequences tested against T1, Zap1 (UniProt P47043) (assay: PBM E-score (8-mer binding enrichment) (E-score (-0.5 to 0.5)); higher = stronger / more preferred TF binding; most listed sequences are background and not binding sites). Details: protein concentration: 200 nM; construct: GST-full length.
T1 sequence: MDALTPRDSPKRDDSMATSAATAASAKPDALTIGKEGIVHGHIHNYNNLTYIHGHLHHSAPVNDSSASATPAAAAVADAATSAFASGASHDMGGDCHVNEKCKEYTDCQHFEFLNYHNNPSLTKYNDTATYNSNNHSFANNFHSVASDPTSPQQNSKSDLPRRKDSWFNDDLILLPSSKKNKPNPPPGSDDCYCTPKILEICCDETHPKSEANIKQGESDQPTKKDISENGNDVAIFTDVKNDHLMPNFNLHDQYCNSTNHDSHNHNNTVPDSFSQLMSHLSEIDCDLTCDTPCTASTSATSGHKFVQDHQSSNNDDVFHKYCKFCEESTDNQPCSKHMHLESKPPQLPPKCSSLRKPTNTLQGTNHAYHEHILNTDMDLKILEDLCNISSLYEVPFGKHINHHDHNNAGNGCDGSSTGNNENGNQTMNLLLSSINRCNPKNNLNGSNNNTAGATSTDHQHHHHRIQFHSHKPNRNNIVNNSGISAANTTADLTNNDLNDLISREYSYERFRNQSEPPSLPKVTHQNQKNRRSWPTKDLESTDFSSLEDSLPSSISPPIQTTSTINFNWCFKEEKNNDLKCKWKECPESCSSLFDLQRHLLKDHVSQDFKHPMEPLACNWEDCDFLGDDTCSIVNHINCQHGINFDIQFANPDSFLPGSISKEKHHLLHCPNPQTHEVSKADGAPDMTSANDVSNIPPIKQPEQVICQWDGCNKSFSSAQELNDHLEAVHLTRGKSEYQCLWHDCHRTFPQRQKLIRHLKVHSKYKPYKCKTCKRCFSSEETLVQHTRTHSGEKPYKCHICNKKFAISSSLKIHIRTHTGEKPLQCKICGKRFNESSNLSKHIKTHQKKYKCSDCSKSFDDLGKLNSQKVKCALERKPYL
Procedure, shortened: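 Yeast transcription factors, full-length or as DNA-binding domains, were expressed with a GST tag using PURExpress in vitro transcription/translation. At about 100-200 nM they were applied to universal all-10-mer Agilent arrays, double-stranded by primer extension on fresh or once-stripped slides. Fluorescent anti-GST detected bound protein, and masliner normalised the scans. E-scores for ungapped eight-base words, pooled with reverse complements, came from the Universal PBM Analysis Suite.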

| Sequence | PBM E-score |
| --- | --- |
| CATGCGAC | 0.014 |
| GAGCACAA | -0.0419 |
| ACTCGTCC | -0.194 |
| CGCGCGGC | 0.0968 |
| CAAAAAGC | 0.0524 |
| ATCTTAAC | 0.142 |
| ATTGTCCA | 0.166 |
| AGGTTTAG | -0.0455 |
| AACAATTC | -0.109 |
| TATCCCGA | -0.0721 |
| CAGGTCTC | -0.00381 |
| CTATTAAA | 0.0946 |
| AATTAGTG | 0.161 |
| CCTGGCAC | -0.197 |
| GAATCCCA | -0.0505 |
| TCGTTCAA | 0.164 |
| AGTATAAC | 0.22 |
| CGGAGTCA | -0.108 |
| CAGGGCCG | -0.0379 |
| ATTGCTGC | -0.105 |
| CAACCCTC | 0.258 |
| CCCGGCTA | -0.252 |
| GGTTAACA | 0.32 |
| ACCTTAGA | 0.221 |
| AGAAGCTG | -0.059 |

| Sequence | PBM E-score |
| --- | --- |
| ACAGATTA | -0.124 |
| AGGATGCC | -0.281 |
| AGTAGAAC | -0.0178 |
| GGATCTTA | 0.0936 |
| ATCATAAC | 0.296 |
| CTAGAAGC | -0.191 |
| CCAGTAGA | -0.0348 |
| AGCATTCG | -0.286 |
| ACTCCTAG | -0.214 |
| ATGACACC | 0.00969 |
| TCGGAACA | 0.0868 |
| GGGGCTGA | -0.25 |
| GAGCGTCC | -0.134 |
| AATGGACG | 0.141 |
| AGAGTCGC | -0.145 |
| ATTTAACG | 0.023 |
| AATGTTGG | 0.0653 |
| GAAACCGC | 0.15 |
| AAGGGCCT | 0.141 |
| CGTAGCCC | -0.102 |
| GCACTACA | -0.146 |
| ATCGATTA | 0.115 |
| CCAATGCC | -0.211 |
| ACGTATCT | -0.336 |
| CACTGGGA | -0.062 |

| Sequence | PBM E-score |
| --- | --- |
| TAGTTCCA | 0.0983 |
| AATATCTG | -0.0386 |
| AGGGGGGA | -0.43 |
| AATGGTGC | 0.0377 |
| ATTCTTCA | 0.133 |
| GACTGATA | -0.187 |
| CGGTACAC | 0.0303 |
| ACTAACGC | -0.0302 |
| AACAAGAC | 0.113 |
| AGCTCCGC | -0.146 |
| CTGATGTC | -0.0263 |
| ACTGAACC | 0.0526 |
| AACGGCGA | 0.0503 |
| GGGCATCA | -0.177 |
| AAGGTGTC | 0.0843 |
| ACGGTAGT | 0.256 |
| CGCAGGAG | -0.0415 |
| AATAGGGG | 0.0477 |
| GCCCACAC | -0.102 |
| ATTAGGGA | -0.02 |
| AAACGCTG | -0.173 |
| CTATGCTC | -0.174 |
| CATACTTC | -0.108 |
| CTTCCTTC | -0.293 |
| AGAAAGAT | -0.0628 |

| Sequence | PBM E-score |
| --- | --- |
| TGCGGCAA | -0.0438 |
| GTAACCAC | 0.431 |
| GCTGGCTA | -0.211 |
| CCAGCGGG | 0.0224 |
| AAAACACG | 0.102 |
| ATATGTAG | -0.0332 |
| ATGCAGAA | 0.0715 |
| AGCTTAAC | -0.0482 |
| AGTTTTCC | -0.0453 |
| GCAGTAAA | 0.104 |
| ATATCATG | 0.0109 |
| CCTTCTAA | 0.0042 |
| CGAATACA | -0.12 |
| ATGTGCAG | -0.142 |
| CCTAGGGC | -0.041 |
| CATGAATG | -0.156 |
| ATTATTAC | 0.21 |
| CTGGACGA | -0.253 |
| CGTGGGCC | -0.0526 |
| AGCAAAAT | -0.0135 |
| AAAACGGC | -0.0578 |
| CGGAACAA | 0.0784 |
| AGTCGGTC | -0.238 |
| AATGTTAC | 0.0925 |
| CGGTCTTA | -0.00835 |

| Sequence | PBM E-score |
| --- | --- |
| AGCTTCTC | -0.261 |
| GAACTTAC | -0.0266 |
| CACATACC | 0.096 |
| GGTGGCGA | -0.0704 |
| CGGACAAA | 0.0366 |
| GTCACGAA | 0.14 |
| CGATGTGA | -0.135 |
| ATACCTGG | -0.129 |
| CAGTGAGA | -0.0523 |
| GACAAGAC | 0.11 |
| CGCTTTTC | -0.082 |
| TCCAAACA | -0.00427 |
| CGAAGACG | -0.253 |
| AACGTTGT | -0.0704 |
| CTTTTACC | 0.0877 |
| CTCTGGCA | -0.0979 |
| AATCAGCC | -0.25 |
| TTCTTCAA | 0.0925 |
| CTGTTGTC | -0.166 |
| TAAGATAA | 0.189 |
| ATCTTGAA | 0.191 |
| ACAGGGTC | 0.315 |
| AGGGTACA | 0.337 |
| CGTCTTAA | 0.05 |
| GTTTATGA | 0.0316 |

| Sequence | PBM E-score |
| --- | --- |
| ATGAACCA | 0.202 |
| ATCAGCAT | -0.07 |
| AAGTGGGC | -0.0497 |
| ACGAGGAG | -0.129 |
| AAAAGTTT | 0.183 |
| CCCTACGA | 0.0771 |
| CGACCTCA | 0.081 |
| CATGTGTC | -0.0208 |
| CCCAGAGA | -0.177 |
| ACCATACC | 0.0927 |
| AATATACC | 0.217 |
| ACTCCTAC | -0.0776 |
| AGACTCGG | -0.391 |
| CTGCCCAC | -0.244 |
| GCATAAGC | -0.0977 |
| CAACATTA | 0.108 |
| ACGTCGAC | -0.0234 |
| ACCACTCT | 0.0546 |
| ATACCAAG | 0.072 |
| CCTACTAA | 0.0268 |
| TGCGAGAA | -0.159 |
| CCGGTTCC | 0.0447 |
| ACTTATCG | -0.125 |
| CGAGCCCG | -0.209 |
| CCTGGCAG | -0.0306 |

| Sequence | PBM E-score |
| --- | --- |
| CCGTGGAA | -0.0179 |
| TATGCTGA | 0.0979 |
| ACTGCAAA | 0.0747 |
| CCCTAACC | 0.33 |
| CACTTGTA | 0.0154 |
| TAACTGAA | 0.0492 |
| CTGAGCTA | -0.214 |
| ACTTTTCG | 0.0623 |
| TTAGAAAA | 0.119 |
| ACCACGGA | -0.12 |
| GCAGTGCA | -0.227 |
| AGAGGCAC | -0.0444 |
| CAGTTCAC | 0.0243 |
| GTGCGCGA | -0.0723 |
| CACACAAA | 0.124 |
| ATATTGTG | 0.101 |
| ATTAACAG | -0.102 |
| GTATGGCA | -0.168 |
| GTCAGCTA | -0.0748 |
| ATGCCACG | -0.317 |
| CAGTATCA | -0.0565 |
| ACGACAAG | -0.0767 |

From the supplement of paper PMC3334620
